# Measured values published in the supplement of paper PMC7826260.
# The list shows a part of the results. Each Rep nickase domain was tested in vitro on the same pool of single strands for 1 h at 37 °C with 3 µM enzyme; only the middle of the 90-letter strands is printed. A value is the log2 ratio of uncut reads to the pool without enzyme; uncut sequences lie near 0, cut ones below; no hit call is given. Reads are scaled to the total, so uncut sequences can rise above 0 when many others are cut.
# Assays:
# Test in all cases: uncleaved DNA left, log2 of reads against the no-enzyme library (log2 ratio); higher = less cleavage (more negative = more Rep cleavage of the k-mer); sequences stand for … in CTCGTCCG…ACCGGAGA
# [1] = system: T1, Rep nickase domain of Muscovy duck circovirus
# T1 sequence (protein, residues 1-111, tag omitted): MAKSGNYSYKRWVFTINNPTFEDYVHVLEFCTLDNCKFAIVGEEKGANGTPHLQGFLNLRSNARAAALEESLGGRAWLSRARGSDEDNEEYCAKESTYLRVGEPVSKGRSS
# Procedure: (§1)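 A pool of 90-nt single-stranded DNAs with seven random bases just before the constant AC of the nick site (name = the seven bases) was cut by 3 µM recombinant His6-SUMO-tagged Rep nickase domain (300 nM DNA, 50 mM HEPES pH 8.0, 50 mM NaCl, 1 mM MnCl2, 1 h, 37 °C, three replicates). Uncut DNA was amplified and sequenced.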
# [2] = system: T2, Rep nickase domain of banana bunchy top virus
# T2 sequence (protein, residues 1-94, tag omitted): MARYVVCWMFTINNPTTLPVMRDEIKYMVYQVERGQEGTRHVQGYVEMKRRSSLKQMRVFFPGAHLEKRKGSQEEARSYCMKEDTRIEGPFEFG
# Procedure: as §1
# [3] = system: T3, Rep nickase domain of cabbage leaf curl virus
# T3 sequence (protein, residues 1-116, tag omitted): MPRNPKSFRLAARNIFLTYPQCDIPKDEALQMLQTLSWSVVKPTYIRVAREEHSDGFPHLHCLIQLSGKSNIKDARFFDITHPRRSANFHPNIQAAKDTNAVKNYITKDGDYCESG
# Procedure: as §1
# [4] = system: T4, Rep nickase domain of chickpea chlorotic dwarf virus
# T4 sequence (protein, residues 1-124, tag omitted): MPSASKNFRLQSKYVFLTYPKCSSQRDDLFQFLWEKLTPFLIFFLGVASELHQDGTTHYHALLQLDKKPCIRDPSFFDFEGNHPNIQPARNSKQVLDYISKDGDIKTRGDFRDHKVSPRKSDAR
# Procedure: as §1
# [5] = system: T5, Rep nickase domain of faba bean necrotic yellows virus
# T5 sequence (protein, residues 1-98, tag omitted): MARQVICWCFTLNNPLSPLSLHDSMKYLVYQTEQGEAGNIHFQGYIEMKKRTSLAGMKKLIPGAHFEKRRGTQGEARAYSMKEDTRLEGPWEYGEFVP
# Procedure: as §1
# [6] = system: T6, Rep nickase domain of maize striate mosaic virus
# T6 sequence (protein, residues 1-117, tag omitted): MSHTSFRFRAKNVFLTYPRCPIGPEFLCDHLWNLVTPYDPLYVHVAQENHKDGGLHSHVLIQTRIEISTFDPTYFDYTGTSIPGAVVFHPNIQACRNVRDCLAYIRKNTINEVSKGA
# Procedure: as §1
# [7] = system: T7, Rep nickase domain of porcine circovirus 2
# T7 sequence (protein, residues 2-116, tag omitted): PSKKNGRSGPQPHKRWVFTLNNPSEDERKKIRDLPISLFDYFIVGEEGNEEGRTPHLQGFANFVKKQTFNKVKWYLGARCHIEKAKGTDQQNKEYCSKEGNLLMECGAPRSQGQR
# Procedure: as §1
# [8] = system: T8, Rep nickase domain of tomato golden mosaic virus
# T8 sequence (protein, residues 1-124, tag omitted): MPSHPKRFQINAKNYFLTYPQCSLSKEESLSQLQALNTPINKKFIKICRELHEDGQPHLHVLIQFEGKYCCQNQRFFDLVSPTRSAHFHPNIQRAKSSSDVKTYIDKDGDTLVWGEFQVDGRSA
# Procedure: as §1
# [9] = system: T9, Rep nickase domain of tomato yellow leaf curl virus
# T9 sequence (protein, residues 1-136, tag omitted): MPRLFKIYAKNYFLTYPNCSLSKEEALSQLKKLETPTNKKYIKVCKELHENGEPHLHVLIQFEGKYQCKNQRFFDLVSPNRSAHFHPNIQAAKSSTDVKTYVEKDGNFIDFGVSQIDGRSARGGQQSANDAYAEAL
# Procedure: as §1
# [10] = system: T10, Rep nickase domain of wheat dwarf virus
# T10 sequence (protein, residues 1-137, tag omitted): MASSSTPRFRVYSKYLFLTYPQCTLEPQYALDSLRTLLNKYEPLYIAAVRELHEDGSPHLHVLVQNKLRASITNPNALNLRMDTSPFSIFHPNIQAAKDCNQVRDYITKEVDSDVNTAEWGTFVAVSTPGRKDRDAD
# Procedure: as §1
Sequence,uncleaved DNA left (log2) [1],uncleaved DNA left (log2) [2],uncleaved DNA left (log2) [3],uncleaved DNA left (log2) [4],uncleaved DNA left (log2) [5],uncleaved DNA left (log2) [6],uncleaved DNA left (log2) [7],uncleaved DNA left (log2) [8],uncleaved DNA left (log2) [9],uncleaved DNA left (log2) [10]
ACCTGCC,0.0369,0.00781,-0.436,-0.316,-0.0431,-0.775,0.0524,-0.00652,-0.038,-0.0965
GGTGGAT,0.179,0.144,0.57,1.73,0.102,2.12,0.245,0.191,0.185,0.277
TAACAAC,-0.0189,-0.099,-0.783,-2.65,-0.131,-0.574,-0.0539,-0.0787,-0.0289,-0.255
GGGGAAA,0.0667,0.132,0.909,2.06,0.117,2.35,0.285,0.0486,0.182,0.264
CACCTGT,-0.00891,-0.0127,-0.148,-0.907,0.00936,-0.448,-0.387,-0.157,0.0275,0.0188
GGAGGGC,0.158,0.23,0.845,1.58,0.0566,1.81,0.304,0.179,-0.0211,0.187
TGGGGGA,0.222,0.0573,0.751,1.35,0.0335,1.84,0.186,0.162,0.0196,0.0715
CTGGGGC,0.0331,-0.0343,0.639,1.18,0.0268,1.45,0.0549,-0.0611,-0.103,-0.0234
AACAGTG,-0.0159,-0.0695,-0.784,-0.705,-0.0506,-1.21,0.177,-0.0608,0.0685,-0.12
TTCTGTA,-0.17,-0.144,-0.016,-0.767,-0.056,-0.28,-0.463,-0.188,-0.0968,-0.171
TCCCACA,-0.138,-0.101,0.0316,-1.16,0.0128,-0.2,-0.0843,-0.0517,-0.0521,-0.162
CTACGAG,0.0958,0.0364,-0.00516,-0.249,0.0237,-0.634,0.169,0.127,0.0387,0.0194
GTTTCGG,0.0323,0.0865,0.539,1.36,-0.101,1.88,0.178,0.165,-0.0446,0.146
GGGGGAG,-0.067,-0.0174,0.753,1.76,-0.0661,2.09,0.175,-0.0523,0.0143,0.0398
TCGTCCG,-0.00704,-0.0324,-0.055,0.528,-0.0436,0.769,0.00531,-0.0362,0.0538,-0.071
CTCGCCA,-0.133,-0.0796,-0.0452,-0.849,0.0974,-0.498,-0.143,-0.0846,-0.1,-0.0632
ATTGCAC,0.0962,-0.0305,-0.645,-0.482,0.0382,-1.19,0.0554,0.022,-0.0447,-0.103
GAGACCG,-0.035,0.0811,-0.216,-0.0309,-0.0597,-0.43,0.228,-0.0309,0.109,0.0688
GATTCGA,0.0285,-0.066,-0.397,-0.39,-0.111,-0.85,-0.0122,-0.174,-0.0967,-0.121
GTGAATG,0.226,0.206,0.215,0.815,0.17,1.58,0.315,0.163,0.222,0.294
ATTACGG,0.0646,0.07,0.511,1.23,0.00609,1.52,0.172,0.0535,-0.0521,0.092

Sequence,uncleaved DNA left (log2) [1],uncleaved DNA left (log2) [2],uncleaved DNA left (log2) [3],uncleaved DNA left (log2) [4],uncleaved DNA left (log2) [5],uncleaved DNA left (log2) [6],uncleaved DNA left (log2) [7],uncleaved DNA left (log2) [8],uncleaved DNA left (log2) [9],uncleaved DNA left (log2) [10]
CGATTAT,-0.387,0.0184,0.0347,-0.392,-0.0458,-0.253,-0.78,-0.058,-0.097,-0.0203
ATAATAG,0.0499,-0.0171,-0.8,-0.446,0.0669,-1.23,0.199,0.0836,0.0164,0.0155
CCGTCGT,0.00901,-0.222,-0.58,-0.735,-0.107,-0.776,-0.492,-0.0851,0.0106,-0.168
TGGTTTC,-0.0662,-0.0457,0.327,0.673,0.0673,1.04,0.104,-0.0118,0.0791,0.0878
TACGCCG,-0.129,-0.106,-0.884,-0.307,0.0634,-0.949,0.0664,-0.0525,-0.052,-0.199
AACCTAT,-0.115,-0.0309,-0.164,-1.95,-0.0437,-0.6,-1.2,0.0264,-0.018,-0.04
AGATTAG,-0.00944,0.0826,-0.637,-0.322,0.162,-1.15,0.0866,0.0754,0.138,-0.0275
AATAGCT,0.0641,-0.0503,-0.502,-1.21,0.103,-0.91,-0.566,0.0256,0.0348,0.00147
CTATTAT,-1.07,-0.102,-0.496,-1.45,-0.271,-0.772,-1.74,-0.225,-0.187,-0.189
ACTATTC,0.00565,0.00393,-0.255,-0.187,-0.0153,-0.969,0.054,0.0684,-0.0855,-0.0551
GAGCACA,0.0496,0.0858,0.252,0.341,-0.0839,1.32,-0.276,0.0536,0.0293,0.103
TGTGTGA,0.111,0.078,0.0737,0.125,0.0784,-0.191,0.123,-0.00632,0.097,0.0808
CGCCTGC,0.0108,-0.0327,-0.199,0.328,-0.147,0.563,-0.111,-0.151,-0.11,0.095
AGATCCA,-0.0695,-0.00665,0.252,0.506,-0.135,1.55,0.0405,-0.0507,-0.0726,-0.146
AAGGCTG,0.0433,0.0165,0.402,1.65,-0.0689,1.77,0.247,0.0919,-0.17,0.203
GCGCCAC,0.128,0.0902,0.327,0.64,0.213,0.565,0.064,0.11,0.137,0.154
ATTCGTT,-1.62,-1.32,-0.33,-2.02,0.0434,-1.01,-2.87,-0.114,-0.0448,-0.0522
CGATATA,-0.0309,-0.0464,-0.353,-0.848,0.00297,-0.381,-0.173,-0.0684,-0.0803,0.117
TACACTG,-0.0156,-0.042,-0.151,0.215,-0.0717,0.507,-0.0772,-0.0948,-0.079,0.00376
AGATCAT,-0.0979,0.0246,0.599,1,-0.158,1.45,-0.319,-0.0916,0.0533,0.171
GTGCGCG,0.013,-0.134,-0.71,0.0333,-0.0582,-0.732,0.0147,-0.0894,-0.014,-0.19

Sequence,uncleaved DNA left (log2) [1],uncleaved DNA left (log2) [2],uncleaved DNA left (log2) [3],uncleaved DNA left (log2) [4],uncleaved DNA left (log2) [5],uncleaved DNA left (log2) [6],uncleaved DNA left (log2) [7],uncleaved DNA left (log2) [8],uncleaved DNA left (log2) [9],uncleaved DNA left (log2) [10]
TATACTA,-0.0778,-0.0643,-0.123,-2.65,0.0347,-0.34,-0.356,-0.0854,0.0167,-0.0194
GGTTCCA,0.0801,0.169,0.376,0.965,-0.0517,1.78,0.16,0.115,0.173,0.18
CATCCGC,0.0621,0.0262,-0.454,-0.677,0.0324,-1.2,0.0618,-0.0166,-0.00495,-0.0585
CCGAGTT,0.0523,-0.104,0.0615,-1.01,0.05,0.229,-0.308,0.0589,-0.054,-0.164
ACTTCCA,-0.103,-0.000962,-0.202,-1.29,0.0162,-0.75,-0.207,-0.0312,-0.105,-0.143
TCCTCTG,0.0198,-0.187,-0.172,-0.196,-0.0529,-0.275,-0.104,-0.179,-0.0331,-0.0582
CAGCGAG,-0.0601,0.00566,-0.129,0.0854,0.0798,-0.452,0.214,0.105,0.0767,-0.0549
AGTCTCA,0.0633,-0.0122,0.14,-0.264,0.0174,0.155,-1.13,0.0266,0.0518,0.0706
ACTGTCC,0.0779,0.085,0.0781,0.499,-0.0123,0.689,0.122,0.13,0.0173,0.0582
TTCGGAA,-0.0464,0.0176,0.388,0.722,0.0852,0.808,0.054,0.0732,-0.103,0.137
CGGCGAT,0.0456,0.0535,-0.00137,0.664,-0.169,0.528,0.107,0.136,-0.0436,0.0455
AGTGAAG,0.125,0.21,-0.254,-0.193,0.142,-0.611,0.25,0.167,0.123,0.034
CGAAAGT,0.0697,-0.0303,-0.018,-0.126,0.0121,-0.389,0.0242,-0.004,0.076,0.0392
AAAAATT,-0.272,-0.346,-3.86,-3.17,0.143,-2,-3.9,-2.12,-0.0978,-3.42
CTGCACG,0.0253,-0.118,-0.971,-0.486,-0.0762,-1.1,0.0924,-0.0425,-0.167,-0.251
AGATTCC,-0.196,-0.0702,0.139,0.465,-0.0747,0.206,-0.714,-0.108,-0.107,-0.122
GTAAGTG,0.0375,0.0349,-0.452,-0.61,0.0634,-0.711,0.179,0.0516,0.0421,-0.0174
ACCGCCC,0.00405,-0.0512,-0.115,-0.187,-0.0615,-0.572,-0.0451,-0.00401,-0.174,-0.224
GATATCG,0.0875,-0.0106,-0.779,-0.395,-0.000604,-0.885,0.0734,-0.0317,-0.0709,-0.143
TTTGGTA,0.0671,0.0183,0.21,-0.193,0.103,0.0486,-0.12,-0.0227,0.0667,0.0269
